In the supplement of paper PMC3334620:
Over roughly 33,000 sequences, “E-score (-0.5 to 0.5)” has its median near -0.012; the highest 2% begin near 0.29. The list shows a part of the results.

target: T1, Ybr033w (UniProt P38073); assay: PBM E-score (8-mer binding enrichment) (E-score (-0.5 to 0.5)); higher = stronger / more preferred TF binding; most listed sequences are background and not binding sites; details: protein concentration: 200 nM; construct: GST-full length
T1 sequence: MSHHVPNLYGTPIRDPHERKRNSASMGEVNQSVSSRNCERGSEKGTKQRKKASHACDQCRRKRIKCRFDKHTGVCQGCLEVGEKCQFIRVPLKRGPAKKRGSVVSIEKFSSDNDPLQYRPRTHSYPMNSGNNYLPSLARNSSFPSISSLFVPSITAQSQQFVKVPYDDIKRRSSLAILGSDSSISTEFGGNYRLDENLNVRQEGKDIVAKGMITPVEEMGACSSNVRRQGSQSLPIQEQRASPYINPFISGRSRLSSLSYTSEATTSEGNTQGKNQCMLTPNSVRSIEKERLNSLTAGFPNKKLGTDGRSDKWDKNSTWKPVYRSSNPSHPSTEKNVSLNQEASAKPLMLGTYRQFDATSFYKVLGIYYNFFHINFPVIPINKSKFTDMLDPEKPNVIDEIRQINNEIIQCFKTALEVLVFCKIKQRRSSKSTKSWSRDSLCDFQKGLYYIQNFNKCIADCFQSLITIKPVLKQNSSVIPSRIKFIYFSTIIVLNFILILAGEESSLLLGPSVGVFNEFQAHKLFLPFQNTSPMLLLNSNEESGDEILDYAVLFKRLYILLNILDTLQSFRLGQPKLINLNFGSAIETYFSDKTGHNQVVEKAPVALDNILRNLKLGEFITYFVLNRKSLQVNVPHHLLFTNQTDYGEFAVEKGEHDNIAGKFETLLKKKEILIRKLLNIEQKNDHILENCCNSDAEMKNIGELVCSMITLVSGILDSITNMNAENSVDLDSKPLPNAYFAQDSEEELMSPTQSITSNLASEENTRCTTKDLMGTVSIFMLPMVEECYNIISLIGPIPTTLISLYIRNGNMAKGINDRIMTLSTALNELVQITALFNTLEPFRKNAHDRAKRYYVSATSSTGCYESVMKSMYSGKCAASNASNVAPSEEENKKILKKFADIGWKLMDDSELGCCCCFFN
Procedure, shortened: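 Yeast transcription factors carrying a GST tag, as full-length proteins or DNA-binding domains, were produced by PURExpress in vitro transcription/translation. About 100-200 nM protein was applied to universal all-10-mer Agilent arrays, double-stranded by primer extension on fresh or once-stripped slides. Bound protein was detected with fluorescent anti-GST, and scans were normalised with masliner. The Universal PBM Analysis Suite gave each ungapped eight-base word, pooled with its reverse complement, an E-score, a modified Wilcoxon-Mann-Whitney statistic.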

Sequence	PBM E-score
CCACCCGC	-0.176
ACACCACT	0.205
AACAAGCT	0.129
GTTTGGGA	0.05
GTAATTGA	0.118
GACCGGGA	-0.178
CTAGCTAC	-0.156
ATGGCAAT	0.118
GATTTACC	0.21
AAGAGGAG	-0.138
ATACCTAG	0.105
CACCTTTA	-0.0505
GAGTTATC	0.0808
AGTGTGTA	-0.00209
CATCCCAC	-0.273
GATTCAAA	0.184
CAGAGCCG	-0.193
ACGCCCCG	-0.224
CCTGACAC	-0.0532
CGGCGCCA	-0.168
ACTAATGG	0.128
GATAGTGC	-0.0956

Sequence	PBM E-score
ACCGCATC	-0.139
AGATCACC	-0.102
CGCGATTC	0.0314
AACATTAA	0.224
AGTACAGA	0.0464
TACCGGGA	-0.0362
CTCATCTA	-0.0476
ACACTCGT	-0.075
CGAATCAG	0.0523
AGCTCACC	-0.209
ACAACCAT	0.297
AGTCCGAG	-0.0537
AGCACTGG	-0.157
TACTACTA	0.335
GATCCAAA	0.109
CCACTGAG	-0.237
CACACGGG	-0.256
AAGCAAAA	0.13
GCTTCATA	0.0157
CTGTGGGA	-0.125
CAAATACA	0.189
CTAATTTC	0.181

Sequence	PBM E-score
GCGATAGC	-0.17
TAGAGAAA	0.135
CAGCGGGC	-0.176
CAAACAGG	-0.131
CCGCCCCC	-0.256
CAGCTCCA	-0.105
AATACAAG	0.252
CTCGAAAC	0.185
AATCATGA	0.173
CCTGCTCC	-0.17
CCAAGTCA	-0.0141
AATAAAAG	0.0821
AGTTTGGC	0.0217
TCAAGACA	0.0336
AAAAACTT	0.237
ACCAGATG	-0.127
CCAGACCC	-0.251
CAGATTCG	-0.0294
AGGCGCCA	-0.185
GGTGACAC	-0.0557
CGGGCCCC	-0.3
CCGAGGGA	-0.19

Sequence	PBM E-score
GGGACTCA	-0.324
TCGCACGA	0.0241
ATTTCCTC	0.176
CATAGCGG	-0.175
CGCTCTGC	-0.0367
AACTCGTA	0.197
AAGTTTGC	0.179
CGAGAAAG	0.102
CGAGCAGA	-0.248
AACGCACA	0.0962
GCCGCGGC	-0.0537
ATCATGGA	-0.0246
AATGGAGC	0.00223
GGTCCGAC	-0.0839
GGGTTAAA	-0.0195
CTTCTGTA	0.121
CAGTTTCG	0.00585
GCGACCGA	0.0421
AACTTCCC	0.00652
ATCGATCC	-0.0468
